# Laboratory results taken from PubChem BioAssay (NCI).
# More than one record can exist for a structure, and the calls need not agree.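 Treatment: one concentration, 48 hours, 96-well format. Scoring: percent growth, with anything below 10 considered active.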 For part of its entries the source gives two or more results. Only these are listed. An entry can have further records. These are repeated runs of one drug, at its own concentration, as given; each value is one run. Brackets with × give the number of equal values in this list.
# System: IGROV1 ovarian
# Test: NCI-60 one-dose screen, 48 h (100 = growth as untreated, 0 = no growth, -100 = all killed)
smiles,measurement,setting,value
COc1cccc2c1C(=O)c1c(O)c3c(c(O)c1C2=O)C[C@@](O)(C(=O)CO)C[C@@H]3OC1CC(N)C(O)C(C)O1 (stereo not given in full),growth,"0.25 µM, runs of 2017","inactive: 40, 42.2, 34.1, 34.3, 33.4 (2×), 35.2, 30.4, 36.4 (2×), 34.5 (2×), 32.2, 37.3, 39, 37.6, 31.4 (3×), 31.2, 34.4, 28.1, 33.3, 33.2, 34.6, 30.2 (2×), 32.9 (2×), 37.4 (2×), 41.1, 31.3, 33.1 (2×), 33.5, 36.5, 35.9 (2×), 34 (2×), 30.7, 37.8, 37.1 (2×), 32.3 (2×), 35.4 (2×), 32.1, 29.9, 28, 34.8, 34.9, 36.2 (2×), 56.2, 57, 36.7, 42.7, 36.6, 36.8, 42, 45.3, 46.7, 38.5, 44.9, 35.1 (2×), 37, 29.2, 39.6, 29.1, 36, 37.9, 24.8, 35.5 (2×), 36.9, 45.4, 26, 40.4, 45.2, 38.7, 33.9%"
same,growth,"0.25 µM, runs of 2018","inactive: 40, 43.6 (2×), 34.3, 35, 39.7, 40.8, 33.3, 34.4 (2×), 32.4 (2×), 32.5, 32.1, 28.8, 39.4 (2×), 43.4, 33.4, 32.3, 35.8, 34.1, 35.5, 38.9 (2×), 32.2, 40.3, 35.2 (2×), 36.5 (2×), 30.9, 28.5, 25.7, 25.2, 40.4 (2×), 36.4, 47, 43.1, 39.5, 41.5, 42.3, 42.2, 35.1, 41, 46, 39.2 (2×), 37.2, 36.8, 38.5, 43.7, 36, 34.5, 25.3, 46.7%"
same,growth,"0.25 µM, runs of 2019","inactive: 34.9, 36, 33.1, 24.7, 32.2, 30.3, 39.3, 35.8, 47.8, 30.4, 32.8, 43.2 (3×), 50.4, 46.3, 39.9 (3×), 40.8 (3×), 43.6, 35.9, 41.3 (2×), 47.3, 44, 54.7, 53.9, 45, 42.7, 42.8, 44.7, 44.6, 47.2, 42, 42.6, 43, 45.2, 48.7, 43.4, 39.2, 42.2, 41.8, 48.5, 41.6, 38.1, 37.4, 35.7%"
same,growth,"0.25 µM, runs of 2020","inactive: 40, 33.6, 45.8, 46.8, 47.1, 41.8, 47.4, 35.9, 35.3, 36.6, 37.1 (2×), 49.1, 52.5, 50.1, 44.9, 42, 42.4, 35.7, 44.2, 39.7, 35.8, 40.6%"
same,growth,"0.25 µM, runs of 2021","inactive: 46.9, 54, 56.5, 47.7, 42.3, 42.4, 39, 41.1, 41.9 (2×), 38.1, 35.6 (2×), 42.8, 40.5, 43.3, 42.6, 43.9 (2×), 41.8 (2×), 42.7, 37.8, 38.2, 39.1, 34.6, 36.9, 39.2, 38, 43.5, 42, 41.6, 45, 36.2, 43.2, 36.7, 37.9, 40.3, 46.5, 46.7 (2×), 47.9, 34.2, 37.4, 34.4, 37.5, 39.9, 32.2 (2×), 44.3, 33.5, 48.7%"
same,growth,"0.25 µM, runs of 2022","inactive: 20, 22.6, 33.7, 32.6, 29.1, 28.2, 45.2, 38.3, 45.3, 33.6, 36.7, 42.8, 38.9, 49.5, 47.4, 47.3, 43.9, 72.4, 49.1, 91.8, 64.9, 85.2, 52.7, 52.9, 57.2, 57.7, 62.1% and active: 6.4%"
same,growth,"25 µM, runs of 1991","inactive: 56.8, 20.1, 26.8, 12.6, 12.7% and active: -27.4, -7.04, -44.1, -9.94, -22.5, -12.7, -11.6, 0.362, -19.3, 3.12, 3.21, -18.5, -27.6, -33.7%"
same,growth,"25 µM, runs of 1992","active: 7.4, -4.81, -23.9, -14.7, -30.4, -38.5, -13.1, 1.62, -5.5, 2.94, -3.53, -15.4 (2×), -24.3, -19, -9.34, 1.76, -9.55, -31.7, -4.42, -26.7, -6.15, 2.83, -25.1, -2.1, -7.86, -13.5, -29.6, -50.3, -41.7, -11.5, -19.1, -31.9, -27.6, -41.6, -29.2, -15.6, -6.84, -6.07, -8.37, -35.4, -35.6, -15.2 (2×), -6.89, -24.1 (3×), -22.5, -37.7, -35, -43.5, -28.5, -24.7, -16.5, 0.498, 0.8, -6.19, -19.6, -11, -31, -11.2, -22.4, 0.677, 5.37, -20, -41.4, -15.9, -35.8, -40.3, -5.27, -11.1, -19.7, -18.1, -26.3 (2×), 5.25, -24.4, -27.4, -28, -35.9, -34, -82.8, -12.3, -19.4, -4.12, -3.11, -18.8, -34.7, -23.4, -6.63, -13.6, -10.9, -37.2, -10.5, -30.3, -5.79, -2.83, -20.1, -43.8, -28.7, -34.2, -76.1, -78.3, 1.61, 5.52, -17.3, -66.1, -4.17, -25.8, 4.13, -17.9, -49.6, -23.3, -24.2, -22.3, -8.32, -44.7, -63.3% and inactive: 10.7%"
same,growth,"25 µM, runs of 1993","active: -34.9, -7.66, -40.6, -44.1, -15.7, -14, 3.49, -46, 0.646, -31, -29.6, -40.9, 2.58, -20, -29.2, -34.5, -31.8, -14.9, -28.9, -53.7, -34.2, 3.45, -29.8, -18.1, -21, -8.94, -15.1, 0.317, 1.66, -47.6, -27.3, -55.9, -69.6, -50.8, -23.3, -23.9, -48.4, -19.6, -51.2, -39.9, -6.4, -40.5% and inactive: 11.8%, 10.4%, 17.3%"
same,growth,"25 µM, runs of 1994","active: -12.5, -31, -42.6, -22.6, -49.7, -23.1 (2×), -47.9, -50.4, -14.8, -41.7, -40.2, -58.5, -46.8, 6.74, -22.2, -30.5, -44.1, 2.75, -29.9, -3.14, -35.4, -34.5, -29.5, 1.22, -2.6, -19.3, -29.1, -37.8, -39.5, -25.8, 3.67, -18.5, -23.4% and inactive: 103%"
same,growth,"25 µM, runs of 1995","active: -18, -66.3, -57.1, -28.8, -20.6, 0.926, -9.64, -4.9, -19.1, -23.7, -67.8, -6.54, -36.7, -14.5, 2.9, -21.3, -28.4, -10.3, -59.6, -42.3, 1.92, -51.5, -25.2, -28, -39.5, -60.1, -19.4, -41.6, 3.42, -3.03, -20.7, 4.36, -23.8, -60.5, -7.12, -38.3, -21.7% and inactive: 13.7%, 73.6%"
same,growth,"25 µM, runs of 1996","active: -42.9, -22 (2×), -34, -34.4, 3.14, -0.124, 2.25, -29, -22.4, 3.17, -21.6, -30.8, -11.6, -16.6, -37.6, -43.4, -27.8, 4.91, -29.9, -45.2 (2×), -30.9, -54.6, -55.8, -23.8, -63.5, -32.3, -57.5, -40.5, -44, -49.6, -38.6, -26.2, -28.3, -44.4, -54.3, -50.9, -42.3, -5.74, -11, -42, -34.1, -23.6, -15.5, -46.3, 2.84, -27.3, 8.98, -27.6, -40.3, -59.4, -26.8, -19.4% and inactive: 13%, 81.5%, 27.9%"
same,growth,"25 µM, runs of 1997","active: 4.9, 0.269, -44, -25.7, -23.3, -39.7, -9.4, -28, -31.5, 1.89, -49.5, -11.2, 7.91, 8.83, -36.3, -41.7, -20.5, -50.6, -14, -36.6, -2.4, -57.7, -45.3, -6.11, -25.6, 6.48, 0, -47, -31.6, -27.8, -3.3, -43.8, 0.612, -64.7% and inactive: 11.9%, 12.4%"
same,growth,"25 µM, runs of 1998","active: -7.24, -51.4, -69, -41.3, -32.3, -47.7, -40.5, 0.34, -31.6, -63.4, -69.8, -84.8, -49.8, -24.6, 1.94, -77.9, -24.1, -3.34% and inactive: 19.3%"
same,growth,"25 µM, runs of 1999","active: -95.3, -70.4, -49.2, -22, -98.2, -10.3, -100 (2×), -62.5, -60.8, 0.502, -54.2, 2.32, -92.2, -1.54, -36.7, -17.1%"
